Test results as given in article PMC12136788.
The other results are listed elsewhere or left out.

T1: UNK ZnF1-3 (human, UniProt Q9C0B0 31-174)
T1 sequence: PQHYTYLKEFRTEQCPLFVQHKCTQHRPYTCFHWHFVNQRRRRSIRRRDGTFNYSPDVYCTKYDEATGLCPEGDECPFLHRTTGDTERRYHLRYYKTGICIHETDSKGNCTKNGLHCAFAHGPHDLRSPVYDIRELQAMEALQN

B1: chr2:91395433:91395434:+_ENSMUSG00000040549_ENSMUST00000099716|mus_mus|motif|central (ssRNA)
RNA: GGGAGUUCUACAGUCCGACGAUCUGGCUUAAGUGAGAUGAUUUUGGAACCAAAUUCACUUAAGGCUUUCCUCAGUGUUUCGGUACAGGCCACUAUGAUCUUGGGGUUCUUGUUAUCCAGGCCCUUCAGAAGCUCUUCUUGUACCAACAGAGGAUUGAGCAUCA
B2: chr14:89343726:89343727:+_ENSG00000165533_ENST00000346301|hu_hu|motif|central (ssRNA)
RNA: GGGAGUUCUACAGUCCGACGAUCAGACAUAGUGCUUUUUUCCCCUUGCAUAAUGCUGCUUCAUAAGAACAUAUGUGGUCGGAGGAACAAUCAGAGCAUAGCAAAAUGCUGCCUUAAUUGUUUAAUUAAAUGUUGUGUGUCCACCAACAGAGGAUUGAGCAUCA
B3: chr1:130485734:130485735:-_ENSMUSG00000045382_ENSMUST00000052172|mus_mus|mus_mus_mus_hu_False|38_38 (ssRNA)
RNA: GGGAGUUCUACAGUCCGACGAUCGAUGAAGGAGUCGAUGCUGAUCCCAAUGUAGUAAGGCAGCCAACAGGCGAAGAAAGCCAGGAUGAGGAUGACUGUCGUCUUGAGGGCCUUGCGCUUCUGGUGGCCCUUGGAGUGUGACAGCAACAGAGGAUUGAGCAUCA
B4: 141391498_141392571_85_CDS_ENSG00000113552_ENST00000311337|human|control|control (ssRNA)
RNA: GGGAGUUCUACAGUCCGACGAUCGUACUUCUCUGGCCCUGGGUUAAACUGGAUGAUGCGGUUCCUGAUGUAUUUAGCCGCCCACUCGCUCGCCUGAGAAUAGUGCUCCAGGAUGAUGAGCUUCAUCUUGUCACGGACGCCUCCCAACAGAGGAUUGAGCAUCA
B5: chr1:10024197:10024198:-_ENSMUSG00000025917_ENSMUST00000027050|mus_hu|FALSE|FALSE (ssRNA)
RNA: GGGAGUUCUACAGUCCGACGAUCGAGCAUCUGAGUACUAACAUCAAUCCCAGAAAGCCAGCAGCCAUAGCCAGGGUGGCUAUGAUACCACCCGAUUGCAUUUUCAAGGCGGCCAACCUGUUUUGCAUUUUCUAUGUAUGCAGCCAACAGAGGAUUGAGCAUCA
B6: chr7:75932113:75932114:+_ENSG00000106211_ENST00000248553|hu_hu|hu_hu_hu_mus_False|18_28 (ssRNA)
RNA: GGGAGUUCUACAGUCCGACGAUCCUGCGACCACUCAUCGGGCAACCGGGGCACCCCGAAAGCUUGAUCGAAGAGGCGGCUGUGUGCAGGGUACCAGUCCCGGAAUGCCCAGCUGGGGCCCCGCAGGAGCAGCGAGAAGGGCACCAACAGAGGAUUGAGCAUCA
B7: chr22:19452774:19452775:-_ENSG00000070010_ENST00000399523|hu_hu|hu_hu_hu_mus_False|58_68 (ssRNA)
RNA: GGGAGUUCUACAGUCCGACGAUCCUUCUCAUUGUAGUUGAUAGCAAUCACAUCUCCAGUCGUCAGACAGGCAAAGUUCCUAAGUGCAUUUUCUAAUACCGCUUUAGGGUUGGUAAUAUCCAGGAAGUCUGGGCUCUGAGGCUGCAACAGAGGAUUGAGCAUCA
B8: chr17:35975056:35975057:-_ENSMUSG00000001525_ENSMUST00000001566|mus_hu|FALSE|FALSE (ssRNA)
RNA: GGGAGUUCUACAGUCCGACGAUCCCCUCAUGGUUAAAAUUUAAUUUUUUUGCUCGCCUCAAGGUAUGUAUGGGGCAAGAAAAUAAGUAAUUUUUUUUCUCCGCAGGUCGCAGGCUGGAAGGUUGGAAUGCGCCCCAGAGGCUGCAACAGAGGAUUGAGCAUCA
B9: chr7:44244176:44244177:+_ENSG00000106636_ENST00000223369|hu_mus|hu_hu_hu_mus_False|58_78 (ssRNA)
RNA: GGGAGUUCUACAGUCCGACGAUCACUGUCGCUCCGGACGUAGACAUGGCAAAGAUAGUCUUGUUCUUUGACAGAAGCUCUAGUGCCUUUCCCCGAGCGUUCCACAAUCAGUUGACUUGUAAAGGUCAUGAAUUCCUGCACACUCAACAGAGGAUUGAGCAUCA
B10: chrX:140365796:140365797:-_ENSMUSG00000031285_ENSMUST00000033642|mus_mus|motif|central (ssRNA)
RNA: GGGAGUUCUACAGUCCGACGAUCCUUCUCAUUACUUAAUGCCUGCAAGGUUCUGGUUCUGUAGAAGCUACAGUGGGCACGGUGAGUGGGACUUGGAAGUCCAUUCAUCCGUGACCCUCUCAUAUUUCUAGAUGCUUUGUCUCGCAACAGAGGAUUGAGCAUCA
B11: chr8:95500983:95500984:-_ENSG00000164944_ENST00000437199|hu_hu|hu_hu_hu_mus_True|68_108 (ssRNA)
RNA: GGGAGUUCUACAGUCCGACGAUCAGAAGGAUUUUUACGAGUAAAGGACCGUACAUGACGGCCUCUAACCACUGCCUCACUAACAAACUUUCCUCUCGAGCCUCCACUGCCGCUAUUUGUACUAGCCCAGGACGGUCCCAGGCCCAACAGAGGAUUGAGCAUCA
B12: chr3:176767854:176767855:-_ENSG00000177565_ENST00000430069|hu_hu|hu_hu_hu_mus_False|8_38 (ssRNA)
RNA: GGGAGUUCUACAGUCCGACGAUCGACAUCCUUGUUACUGGGCACGUCCUGCCCUCCUUCCCGUAUGCAGUGUCUAAGCACGAGCUGCGUAGGGCCACUGGUGCUGUUCUCACUGAGGUUCCAGAUUCUUGCUGUUGAGUCUCCCAACAGAGGAUUGAGCAUCA
B13: chr22:32879901:32879902:+_ENSG00000100225_ENST00000397426|hu_mus|hu_hu_hu_mus_False|18_38 (ssRNA)
RNA: GGGAGUUCUACAGUCCGACGAUCCUCUUCCAUACUCAUGGCAUCCUGAAUUGACUCAGCUUCAACAUUUUGACUAGGCCCUUCCAUACUGUCAUCAUUCCAAACACCAAAUGGGGUUGCCUGUCCUUGGGAUGAAUCAGUCCCCAACAGAGGAUUGAGCAUCA
B14: chr2:155843326:155843327:+_ENSMUSG00000005881_ENSMUST00000006035|mus_mus|FALSE|FALSE (ssRNA)
RNA: GGGAGUUCUACAGUCCGACGAUCCUGGUCACCCAGGAGCCCAUUGGCAACCUUCUCGUGCCUGGUCACGGAGAACUGGUUAGUCCUCAGCACCUCCCCGUCCACCUUCAUGUACACUGUGGGCACCACCUUCACAAAGUACUGCAACAGAGGAUUGAGCAUCA
B15: chr1:17152557:17152558:+_ENSMUSG00000025777_ENSMUST00000026879|mus_hu|FALSE|FALSE (ssRNA)
RNA: GGGAGUUCUACAGUCCGACGAUCAUACCCACUACCCAGCCAAUACCUAGACAUGCUAGUGAUUAGCUGGGACAUUCACCUAAAUGCCACUUAUGUGUAUGAAGAGGGCUACAGAUGCCACCCUUUCUACCUCCCACUGACUGGCAACAGAGGAUUGAGCAUCA
B16: chr12:69233606:69233607:+_ENSG00000135679_ENST00000462284|hu_mus|FALSE|FALSE (ssRNA)
RNA: GGGAGUUCUACAGUCCGACGAUCCUAAUUUGGGGGUCAUAUAGUUAGAAAUAUAAAAUUCUAUUUUUGUGAGCAGGUCAGCUAGUUGAAGUAAGUUAGCACAAUCAUUUGGAUUGGCUGUCUGCACACUGGGCAGGGCUUGUUCAACAGAGGAUUGAGCAUCA
B17: chr3:135125919:135125920:+_ENSMUSG00000078578_ENSMUST00000106291|mus_hu|FALSE|FALSE (ssRNA)
RNA: GGGAGUUCUACAGUCCGACGAUCCUCUGGCACUAGGGGGUCAUCUGGGUUUGGAUCACAUAGCAGUGAACAAAUGGAUAAAAGAACUUUAGAAAUUGUUAAAGCAGGCGACCACUGUGAUCUUAGAAUAUCGAGACAAAUGCUCAACAGAGGAUUGAGCAUCA
B18: chr16:17389515:17389516:-_ENSMUSG00000041720_ENSMUST00000036161|mus_mus|motif|central (ssRNA)
RNA: GGGAGUUCUACAGUCCGACGAUCUCAGAUUCAAUGAGAAAAAUGCCCAAUGCAAUCACUGCAUCUCUCCGUCUUUCAUCGGGUUGGAAGAUUCCAUGAAAAUCUACUGGGCACAUGCAAAGCAGCUUUUGAACCUGAGACAGGCAACAGAGGAUUGAGCAUCA
B19: chr10:1038518:1038519:+_ENSG00000107937_ENST00000545048|hu_hu|hu_hu_hu_mus_False|1_1 (ssRNA)
RNA: GGGAGUUCUACAGUCCGACGAUCCAGUCUGUCAUGGUAAUUCUGUUGAGUAAAUUUGACUUUUCUCAUAUAAAAAUGUCGAAUCCGAUGAAUUUGAUAAUGUUUAUGAAUAACCGUUGGAGUCUUUCGUUGAGUCUUCGACAACAACAGAGGAUUGAGCAUCA
B20: chr5:128440902:128440903:+_ENSG00000066583_ENST00000173527|hu_mus|hu_hu_hu_mus_True|48_48 (ssRNA)
RNA: GGGAGUUCUACAGUCCGACGAUCUUGAACGGUGCUGCCAAGUCCUUUGGGGUAUUGUUCCGUUAUGAUAACUGGAAUCCCUAAGAUCCGGGCCCCUUGCAACAGUCUCUGUCCCACACUAAUGAUGUCCCCAAAGUAUUUGAUCAACAGAGGAUUGAGCAUCA
B21: chr16:20679341:20679342:+_ENSMUSG00000045983_ENSMUST00000044783|mus_mus|motif|central (ssRNA)
RNA: GGGAGUUCUACAGUCCGACGAUCUGGGGGUGGUGAUGGGGUUGGAGAAGGCGACGAAGGCUGAGAUUCUGUGCCAGGGCGGUGCUCUGGGCCAGGCAGUCCUGGCCGCCCCCCAAUGGCUGCUCCCUGCGACCGGUCAUCUGGCAACAGAGGAUUGAGCAUCA
B22: chr12:42180722:42180723:-_ENSMUSG00000036295_ENSMUST00000043884|mus_hu|mus_mus_mus_hu_True|8_18 (ssRNA)
RNA: GGGAGUUCUACAGUCCGACGAUCCUGUAGGAGAAGAAUCUGUGUGUUAGCUGGCAAUCUGGCUGGGAAAGUUAAAAGACCUAAAUCAUUACAAUCCACUGUAGAUGCUUCCAUAUAGAUGGAUCUCGGGGUAAACCAAGGCCUCAACAGAGGAUUGAGCAUCA

Target: T1, UNK ZnF1-3
Experiment: nsRBNS (natural sequence RNA bind-n-seq); RBNS binding buffer (assumed for nsRBNS): 25 mM Tris pH 7.5, 150 mM KCl, 3 mM MgCl2, 0.01% Triton X-100, 500 ug/ml BSA, 20 U/ml SUPERase-In, 4 C; UNK is unkempt and MSI1 is Musashi-1; names of the RNAs are library labels; protein concentration not given here; high values mean tight binding

Binder	binding signal [enrichment R]
B1	0.527
B2	1.3
B3	0.963
B4	0.903
B5	1.32
B6	1.11
B7	0.819
B8	1.18
B9	0.832
B10	0.473
B11	1.23
B12	0.463
B13	1.09
B14	0.997
B15	0.662
B16	1.3
B17	1.47
B18	0.629
B19	0.645
B20	0.704
B21	0.948
B22	1.02
